# Measurements reported in PubChem BioAssay AID1347073 (National Center for Advancing Translational Sciences (NCATS), 2019).
# Screen size: about 45,000 compounds; about 200 (0.44%) were called active. Not shown: some 7% with an inconclusive outcome. Calls follow the shape of the dose curve; as a rule, active = well fitted activation curve with a large enough effect; inconclusive = small, poorly fitted or top-dose-only effect; inactive = no such curve, though single readings can be large or run the other way. This is one part of the list.
# Experiment: qHTS of TDP-43 Inhibitors: NCGC Sytravon Library Screen; also: 0% is about no effect; nearly all actives have a fitted effect of over 55% in size
# Details: yeast TDP-43 toxicity rescue, BacTiter-Glo growth, 24 h; series mostly up to 46.1 µM; growth rescue (activation): at the top concentration
# Summary of the method: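 TDP-43-expressing yeast, pregrown in raffinose, seeded at OD600 0.02 in galactose medium with compound for 24 hr at 30 deg C. Growth read by BacTiter-Glo luminescence, so rescue of toxicity appears as activation.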
row,Compound,growth rescue (activation)
1,Cc1ccc(CNC(=O)COC(=O)c2ccc(S(=O)(=O)N(C)C)cc2)cc1,inactive: 15.9%
2,CCCC(=O)Nc1nnc(S(=O)(=O)N(C)Cc2ccco2)s1,inactive: 5.95%
3,Cc1ccc(C(=O)NCC(=O)OCc2csc(-c3ccccc3)n2)cc1,inactive: 16.4%
4,O=c1c2c([nH]n1-c1ccccc1)CCCC2,inactive: 8.66%
5,O=C(O)Cn1ccnc1,inactive: 22.6%
6,O=C(CSc1nnc2n1CCCCC2)Nc1ccc(N2CCOCC2)cc1,inactive: 30.2%
7,Cc1cc(=O)[nH]c(SCC(=O)N2CCCC2)n1,inactive: 25.1%
8,CSc1ccccc1NC(=O)COC(=O)c1ccc(O)cc1,inactive: 28.4%
9,COC(=O)C(NC(=O)c1ccco1)(Nc1ccc(Br)cn1)C(F)(F)F (configuration not stated),inactive: 16.3%
10,CN(C)CC(O)COC(c1ccc(Cl)cc1)c1ccc(Cl)cc1 (configuration not stated),inactive: 13%
11,CCC1Oc2ccc(C)cc2N(CC(=O)NCc2cccs2)C1=O (configuration not stated),inactive: 8.4%
12,COC(=O)c1cn(CC(=O)Nc2ccc(F)cc2)c2ccccc12,inactive: -3.86%
13,CC(=O)c1cccc(Nc2nc(-c3cccc([N+](=O)[O-])c3)cs2)c1,inactive: 12.2%
14,COc1cccc(C(=O)COC(=O)c2ccc(NC(C)=O)cc2)c1,inactive: 19.3%
15,CCc1nc2ccc(C(=O)Nc3ccc(OC)c(OC)c3)cn2c1N(C)CCC(C)C,inactive: 4.14%
16,CCOC(=O)C(C(C)C)C(N)Cc1ccc(F)cc1 (configuration not stated),inactive: -3.87%
17,O=C(CCC(=O)c1ccc(Oc2ccccc2)cc1)Nc1cccc(Cl)c1Cl,inactive: 12.3%
18,COCCn1c(SCC(=O)N2CC(=O)Nc3ccccc32)nc2ccccc21,inactive: -7.89%
19,CCOC(=O)C1(Cc2ccccc2)CCCN(Cc2ccccn2)C1 (configuration not stated),inactive: 18.7%
20,O=c1[nH]c2ccccc2cc1CN(c1ccccc1)S(=O)(=O)c1ccccc1,inactive: -6.68%
21,Cc1cccc(NC(=S)NCc2ccc3c(c2)OCO3)c1C,inactive: 32.9%
22,CN(C)C(=O)c1cccc(-c2cnc3c(NC=O)cc(-c4ccccc4Cl)cn23)c1,inactive: 12.8%

row,Compound,growth rescue (activation)
1,COc1ccccc1NC(=O)Nc1nc(C(N)CCc2ccccc2)cs1 (configuration not stated),inactive: 15.2%
2,COc1ccc(S(=O)(=O)Nc2cc(S(=O)(=O)c3ccccc3)c(O)cc2C)cc1,inactive: 2.11%
3,O=C(Cc1cc(=O)[nH][nH]1)N/N=C/C=C/c1ccccc1,inactive: -6.06%
4,O=C(c1ccc([N+](=O)[O-])s1)N1CCCc2ccccc21,inactive: 8.43%
5,COc1ccc(S(=O)(=O)N2CCCC(C(=O)NC3CC3)C2)cc1Cl (configuration not stated),inactive: -3.63%
6,CCn1c(/C=C/c2ccccc2[N+](=O)[O-])nc2ccccc2c1=O,inactive: 1.76%
7,O=C(Nc1ccc(Cl)c(S(=O)(=O)N2CCOCC2)c1)c1cc(-c2ccccn2)nc2ccccc12,inactive: 13.3%
8,CCc1ccc(N2CCN(S(=O)(=O)CC34CCC(CC3=O)C4(C)C)CC2)cc1 (configuration not stated),inactive: 5.24%
9,COc1ccc(C)cc1NC(=O)C1CCN(C(=O)C2CC(=O)N(c3ccc(C)cc3)C2)CC1 (configuration not stated),inactive: 13.1%
10,O=C1CCC(c2ccccc2)=NN1Cc1c(F)cccc1Cl,inactive: 0.602%
11,COc1ccc(C(=O)Nc2ccccc2-c2ccccc2)cc1Cl,inactive: 15.6%
12,COc1ccc(NC(=S)N2CCC(N(C)CCN3CCOCC3)CC2)cc1,inactive: 3.83%
13,COc1ccc(S(=O)(=O)N2CCOCC2)cc1NC(=O)COC(=O)CC1CC2CCC1C2 (configuration not stated),inactive: 17%
14,Cc1cc(C(=O)CSc2nc(N)cc(N)n2)c(C)n1CC1CCCO1 (configuration not stated),inactive: 10.3%
15,CCn1ncc([N+](=O)[O-])c1C(=O)N1CCc2ccccc2C1,inactive: 27.6%
16,CCOc1ccc(S(=O)(=O)NCc2ccccc2)cc1C(N)=O,inactive: 15.6%
17,COc1ccc(-c2nn(-c3ccccc3)cc2CNCCN2CCOC2=O)c(F)c1,inactive: 7.63%
18,COc1ccc(NC(=O)CSCCc2ccccn2)cc1OC,inactive: -0.643%
19,CCOC(=O)N1CCN(C(=O)C2CC(=O)N(c3ccccc3)C2)CC1 (configuration not stated),inactive: 24.6%
20,COc1ccccc1NC(=O)CCn1nc(-c2ccccc2)c2ccccc2c1=O,inactive: -3.06%
21,CCOC(=O)C1(Cc2cccc(F)c2)CCN(Cc2cnn(CC)c2C)CC1,inactive: -3.27%
22,COCC(C)N1C(=O)Cc2c1nc(N)c1c(N)nc(N3CCN(c4ccccc4F)CC3)c(C#N)c21 (configuration not stated),inactive: 7.24%

row,Compound,growth rescue (activation)
1,Cc1ccc(NC(=O)COC(=O)C2(CC(=O)NC(C)(C)C)CCCC2)cc1C,inactive: 22.6%
2,COc1ccc(OC)c(N(CC(=O)NCCSCc2ccco2)S(=O)(=O)c2ccccc2)c1,inactive: 5.59%
3,COC(=O)c1cccc(-n2c(C)cc(C=O)c2C)c1C,inactive: 28%
4,O=C(N/N=C/c1cn[nH]c1-c1ccccc1)c1ccco1,inactive: 2.29%
5,O=C(CSCC(=O)Nc1cccc([N+](=O)[O-])c1)Nc1ccccc1,inactive: 4.09%
6,COc1ccccc1C(=O)NC(=S)Nc1cccnc1Cl,inactive: 13.4%
7,O=C(CCN1CCCCC1)N=Nc1c(O)[nH]c2ccccc12,inactive: 1.52%
8,CCOC(=O)CN1C(=O)N(CC(=O)OCC)C(c2ccccc2)(c2ccccc2)C1=O,inactive: 10.2%
9,COc1cc(NC(=O)N[C@@H](CCSC)C(=O)O)cc(OC)c1,inactive: -9.15%
10,CN1C(=O)/C(=C/c2ccccc2OCc2ccccc2)NC1=S,inactive: 22.4%
11,CCCN(CCC)Cc1c(C(=O)N/N=C/C(C)=C\c2ccccc2)nnn1-c1nonc1N,inactive: -5.17%
12,NS(=O)(=O)c1ccc(CCNc2nn3c(-c4cccc(OC(F)(F)F)c4)cnc3s2)cc1,inactive: 25.6%
13,C=CCNC(=S)N/N=C/c1ccc(C(C)(C)C)cc1,inactive: 10.6%
14,COc1ccc(NC(=S)N2CCN(C(=O)c3ccco3)CC2)cc1OC,inactive: 7.73%
15,CC(C)C(NC(=O)c1ccccc1F)C(=O)NCCCn1ccnc1 (configuration not stated),inactive: 19.7%
16,CC(=O)Oc1ccc(N(C(C)=O)S(=O)(=O)c2cc([N+](=O)[O-])ccc2C)cc1,inactive: 0.449%
17,COC(=O)c1ccc2c(=O)[nH]c(CSc3nc(C)cs3)nc2c1,inactive: -7.04%
18,N#C/C(=C\c1ccc(N2CCOCC2)o1)C(=O)Nc1ccc(O)cc1,inactive: -20.4%
19,COc1cc(C2CC(=O)N(CC(=O)NCC3CCCO3)c3ccccc3S2)cc(OC)c1OC (configuration not stated),inactive: 8.34%
20,Cc1ccc(C(=O)Nc2ccccc2C(=O)NC(Cc2c[nH]c3ccccc23)C(=O)O)cc1 (configuration not stated),inactive: 14.6%
21,Cc1c(NC(=O)c2cc(-c3cccc(Cl)c3)on2)c(=O)n(-c2ccccc2)n1C,inactive: -17.3%
22,O=C(NCN1CCCCC1)c1cnccn1,inactive: -25.6%

row,Compound,growth rescue (activation)
1,Cc1cccn2c(=O)c3cc(C#N)c(=NC(=O)c4ccccc4)n(Cc4ccco4)c3nc12,inactive: -30%
2,Cc1cnc(C(=O)OCC(=O)Nc2ccc(C)c(S(=O)(=O)N3CCOCC3)c2)cn1,inactive: 6.6%
3,CCCc1ccc(OCc2ccc(C(=O)NCc3cccnc3)o2)c(OC)c1,inactive: -5.09%
4,CN(Cc1ccc(-n2cccn2)cc1)Cc1nc(-c2cnccn2)no1,inactive: -3.73%
5,COc1ccc(N2CCOCC2)c(NC(=O)c2cc3ccccc3o2)c1,inactive: 22.6%
6,Cc1cc(C(=O)COc2ccc(C#N)cc2)c(C)n1CC1CCCO1 (configuration not stated),inactive: 18.6%
7,CC(=O)Nc1ccc(S(=O)(=O)Nc2nc3ccccc3nc2N2CCOCC2)cc1,inactive: 7.75%
8,COC(=O)C1CCN(C(=O)CSc2ccccc2)CC1,inactive: -15.4%
9,O=C(Nc1ccc(-c2nc3ccccc3[nH]2)cc1)c1c(F)c(F)c(F)c(F)c1F,inactive: 1.3%
10,OCCCNc1ncnc2c1[nH]c1ccccc12,inactive: -2.27%
11,CCOc1ccc(S(=O)(=O)N2CCN(C(=O)Cc3n[nH]c(=O)c4ccccc34)CC2)cc1,inactive: -6.72%
12,CC(=O)NC(Cc1cc(C)ccc1C)C(=O)N1CCN(C(=O)c2ccc(Br)cc2)CC1 (configuration not stated),inactive: 8.22%
13,CCOC(=O)c1sc2nc(C)cc(-c3ccccc3)c2c1N,inactive: 12.2%
14,O=C(NC1CCC(O)CC1)c1cccc2cccnc12 (configuration not stated),inactive: -4.82%
15,Cc1cccc(C)c1NC(=O)CN,inactive: 1.27%
16,CC1(C(=O)Nc2ccc(Cl)c(Cl)c2)CCN1C(=O)CCC1CCCC1 (configuration not stated),inactive: 18.9%
17,CC(=O)Nc1ccc(NC(=O)COC(=O)c2cnccn2)cc1,inactive: 3.39%
18,COc1ccccc1Nc1nnc(SCC(=O)N2CC(=O)Nc3ccccc32)s1,inactive: -18.6%
19,c1ccc(COc2ccc(CN3CCN(c4ccccn4)CC3)cc2)cc1,inactive: 15.4%
20,O=C(COC(=O)c1ccc(Br)o1)Nc1cccc(S(=O)(=O)N2CCOCC2)c1,inactive: -0.715%
21,COc1ccc(NC(=S)NCc2ccc(S(N)(=O)=O)cc2)cc1OC,inactive: -14.1%
22,COc1ccc2c(C)cc(SCC(=O)NCCN3C(=O)CSC3=O)nc2c1,inactive: 16.9%

row,Compound,growth rescue (activation)
1,O=C1Nc2ccccc2/C1=N\N1CCOCC1,inactive: -4.93%
2,COc1ccc(OCc2nnc(SCC(=O)Nc3ccccc3F)o2)cc1,inactive: 3.03%
3,CC(=O)Nc1ccc(S(=O)(=O)NCC(=O)OCC(=O)N2CCCc3ccccc32)cc1,inactive: -18.7%
4,CCOc1ccc(S(=O)(=O)N2CCN(C(=O)c3cc(C4CC4)nn3-c3ccccc3)CC2)cc1,inactive: -1.58%
5,CN(Cc1cccnc1)Cc1cn(C)nc1-c1ccc(Oc2ccccc2)cc1,inactive: 5.21%
6,CCc1cccc(NC(=O)CNS(=O)(=O)c2ccc3nc(C)sc3c2)c1,inactive: 11.1%
7,COc1ccc(S(=O)(=O)Nc2ccccc2C(=O)N2CCOCC2)cc1F,inactive: -8.02%
8,Cc1c(C)c(C)c(S(=O)(=O)Nc2ccc3[nH]c(=O)[nH]c3c2)c(C)c1C,inactive: -0.912%
9,Nc1ccc(C(=O)OCc2nc3ccccc3[nH]2)cc1,inactive: -5.78%
10,COc1cccc(CNc2nc3cc(-c4cccc(OC)c4)sc3c(=O)n2C)c1,inactive: 25.2%
11,O=C(O)c1cc(S(=O)(=O)O)cc(Nc2c3ccccc3nc3ccccc23)c1O,inactive: -3.47%
12,O=C(CN(C(=O)c1csnn1)c1ccccc1)NCCc1ccccc1,inactive: 6.05%
13,O=C(NCCCN1CCN(Cc2ccccc2)CC1)C1CCN(S(=O)(=O)N2CCC3(CC2)OCCO3)CC1,inactive: -0.836%
14,O=C(CCn1c(=O)oc2ccccc21)Nc1ccc(N2CCOCC2)cc1,inactive: 8.82%
15,O=C(/C=C/Nc1ccc(S(=O)(=O)Nc2ncccn2)cc1)c1cccs1,inactive: 24.7%
16,CCOc1ccc(OCC(=O)Nc2nccs2)cc1,inactive: -15.6%
17,CS(=O)(=O)c1ccc(C(=O)OCC(=O)NCc2cccs2)cc1[N+](=O)[O-],inactive: 10.6%
18,CN(C)S(=O)(=O)c1ccc(C(=O)NCCN=C2NS(=O)(=O)c3ccccc32)cc1,inactive: 9.13%
19,O=C(NCC1CCCCC1)c1cccc([N+](=O)[O-])c1,inactive: 14.6%
